In PubChem BioAssay AID485294 (National Center for Advancing Translational Sciences (NCATS), 2010):
About 150 (0.041%) of roughly 370,000 compounds were called active. This list was built around the results that the source calls inconclusive (neither active nor inactive); the mix of calls is not that of the screen. The call rests on the fitted dose curve; in most records, active means well fitted inhibition curve with a large enough effect; inconclusive means small, poorly fitted or top-dose-only effect; inactive means flat fitted curve, though single readings scatter. Potencies of inconclusive entries are left out as doubtful fits.

Each compound was assayed against Beta-lactamase (Escherichia coli (strain K12)) (UniProt P00811) (assay: qHTS Inhibitors of AmpC Beta-Lactamase (assay with detergent)). Details: AmpC hydrolysis of nitrocefin, absorbance 480 nm, 0.01% Triton; series mostly up to 114 µM.
Method in brief: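 AmpC (5.3 nM in the dispensed reagent) in 20 mM phosphate pH 7.0 with 0.01% (detergent screen) or 0.0001% Triton X-100 was preincubated with compounds for 15 min at room temperature. Nitrocefin was then added from an 800 uM solution, and hydrolysis was followed at 480 nm.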
Further: nearly all actives have a fitted effect of over 25% in size.
Potency means the concentration at half of the fitted maximal effect; tags describe the fitted curve by direction and shape.

Sequence of UniProt P00811 (P00811 whole entry, looked up): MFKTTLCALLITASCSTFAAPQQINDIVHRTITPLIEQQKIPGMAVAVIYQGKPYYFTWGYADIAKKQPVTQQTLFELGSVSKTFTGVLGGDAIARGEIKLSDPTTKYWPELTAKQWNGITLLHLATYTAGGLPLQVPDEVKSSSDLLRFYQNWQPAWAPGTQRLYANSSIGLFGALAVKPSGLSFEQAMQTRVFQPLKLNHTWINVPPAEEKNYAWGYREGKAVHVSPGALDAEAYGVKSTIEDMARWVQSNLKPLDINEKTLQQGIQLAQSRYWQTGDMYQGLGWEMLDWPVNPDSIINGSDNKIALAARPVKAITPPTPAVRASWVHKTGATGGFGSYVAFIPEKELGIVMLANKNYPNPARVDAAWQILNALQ

| SMILES | Potency |
| --- | --- |
| Cc1ccc([N+](=O)[O-])cc1NC(=S)NC(=O)c1c(Cl)cnn1C | inactive |
| COc1cc(C(=O)OCC(=O)Nc2c(F)c(F)c(F)c(F)c2F)cc(OC)c1OC | inconclusive [inhibitor, full curve, poor fit] |
| Cc1cc(=O)nc2c3ccccc3n(C(C)C(=O)Nc3cc(F)ccc3F)n12 (centres undefined) | inactive |
| CC(=O)c1cccc(-n2nnnc2SCC(=O)N2CCCC2)c1 | inconclusive [inhibitor, full curve] |
| COc1cc(NC(=O)CC2NCCNC2=O)cc(OC)c1 (centres undefined) | inactive |
| CC(C)=CCN1CCN(Cc2cccc3nonc23)CC1CCO (centres undefined) | inactive |
| O=C(c1ccccc1F)N1CCN(Cc2cccc(Cl)c2)CC1 | inconclusive [inhibitor, full curve, poor fit] |
| CN(C)C1(CNCC(O)c2ccccc2)CCCCC1 (centres undefined) | inconclusive [inhibitor, full curve, poor fit] |
| Cn1c(C(=O)Nc2ccc3c(c2)OCO3)cc2sccc21 | inconclusive [inhibitor, full curve, poor fit] |
| Cc1ccc(CN2CC3CC(C2)c2cccc(=O)n2C3)cc1 (centres undefined) | inconclusive [inhibitor, full curve, poor fit] |
| Cc1ccc(SCC(=O)c2cc(C)c(OC(=S)N(C)C)c(C)c2)cc1 | inconclusive [inhibitor, single point] |
| Cn1c(SCC(=O)NCC2CCCO2)ncc(C(=O)Nc2ccccc2)c1=O (centres undefined) | inconclusive [inhibitor, full curve, poor fit] |
| Cc1cc(C(=O)NCc2cccnc2)no1 | inactive |
| COc1ccccc1N1CCN(Cc2nc3ccccc3[nH]2)CC1 | inconclusive [inhibitor, full curve] |
| CCOC(=O)N1CCN(c2c(N3CCN(c4ccc(F)cc4)CC3)c(=O)c2=O)CC1 | inactive |
| CCOC(=O)Cc1csc(NC(=O)C(C)c2ccc([N+](=O)[O-])cc2)n1 (centres undefined) | inconclusive [inhibitor, full curve] |
| CC(=O)Nc1sc(N/N=C\c2ccco2)nc1-c1cccs1 | inactive |
| O=C(O)Cc1ccc(NC(=O)c2ccc3c(c2)C(=O)N(CC2CCCO2)C3=O)cc1 (centres undefined) | inactive |
| CN1CCc2cccc3c2C1Cc1ccc(O)c(O)c1-3 (centres undefined) | inconclusive [inhibitor, partial curve] |
| Oc1oc(-c2ccccc2)nc1C=NCc1ccccc1 | inconclusive [inhibitor, single point] |
| O=C(NCCn1cc(SCc2ccc(F)cc2)c2ccccc21)c1ccccc1F | inconclusive [inhibitor, full curve, poor fit] |
| Cc1nc2c(nnn2Cc2c(Cl)cccc2Cl)c(=O)[nH]1 | inconclusive [inhibitor, full curve, poor fit] |
| COc1ccc2sc(-c3ccccc3OC)c(-c3ccc4c(c3)OCCO4)c2c1 | inactive |

| SMILES | Potency |
| --- | --- |
| CC#CCOC(=O)c1c(C)nc2sc3c(c2c1N)CCC(O)C3 (centres undefined) | inactive |
| O=C(CSc1nccn(-c2ccc3c(c2)OCCO3)c1=O)Nc1ccccc1 | inconclusive [inhibitor, full curve, poor fit] |
| Cc1ccc(Nc2c(-c3ccccc3O)nc3ccc(Br)cn23)cc1 | inconclusive [inhibitor, full curve, poor fit] |
| CCN(CC)CCNC(=O)c1ccc2c(c1NCCO)C(=O)c1ccccc1C2=O | inconclusive [inhibitor, full curve, poor fit] |
| CCOc1ccc(S(=O)(=O)N2CCN(c3ccccc3)CC2)cc1C(N)=O | inactive |
| Cc1oc(-c2ccccc2)nc1CNC(=O)Nc1ccccc1 | inactive |
| CCc1cccc2sc(NC(=O)c3ccc(N4C(=O)CCC4=O)cc3)nc12 | inconclusive [inhibitor, full curve, poor fit] |
| COc1cc(/C=N/NC(=O)CN2CCCCC2)ccc1OCc1ccc(Br)cc1 | inconclusive [inhibitor, partial curve, poor fit] |
| CCC(=O)N1CCc2cc(S(=O)(=O)Nc3ccccc3C)ccc21 | inactive |
| O=C(N/N=C/c1cccnc1)c1ccc(NC(=O)C(c2ccccc2)c2ccccc2)cc1 | inconclusive [inhibitor, single point] |
| COc1cc2nc(N(CCCN(C)C)C(=O)c3ccc(S(=O)(=O)N4CCc5ccccc54)cc3)sc2cc1OC | inconclusive [inhibitor, full curve, poor fit] |
| CCOC(=O)c1cc(C(=O)NN)c(C)nc1C | inactive |
| Cc1ccc(NCc2nnc3n2CCCCC3)cc1Cl | inactive |
| O=C(/C=C/c1cccc([N+](=O)[O-])c1)NCCSCc1cccc(Cl)c1 | inconclusive [inhibitor, single point] |
| CCC(C(=O)Nc1ccc(S(=O)(=O)N(C)C2CCN(C)CC2)cc1)c1ccccc1 (centres undefined) | inactive |
| O=C(N/N=C/c1cccn1-c1cccc(C(=O)O)c1)Nc1ccccc1 | inactive |
| O=C(NCc1ccccc1Cl)C1CCCN1C(=O)NCc1ccccc1 (centres undefined) | inconclusive [inhibitor, partial curve, poor fit] |
| CCc1cccc(CC)c1NC1=NS(=O)(=O)c2ccccc21 | inactive |
| O=C(N/N=C/c1c(O)n(Cc2ccccc2)c(=O)[nH]c1=O)c1ccncc1 | inactive |
| CC(C)CC1NC(=O)N(CC(=O)Nc2ccc(OCc3ccccc3)cc2)C1=O (centres undefined) | inconclusive [inhibitor, full curve, poor fit] |
| Nc1nc(SCC(=O)NCCO)nc2sc3c(c12)CCCC3 | inactive |
| C=CCn1c(SCC(=O)NCc2ccco2)nc2sc3c(c2c1=O)CCCC3 | inconclusive [inhibitor, full curve, poor fit] |
| COC(=O)c1sc2nc[nH]c(=O)c2c1C | inconclusive [inhibitor, single point] |

| SMILES | Potency |
| --- | --- |
| Cc1cccnc1N(C(=O)Nc1cccc(Cl)c1)C1=NCC(C)(C)S1 | inconclusive [inhibitor, partial curve, poor fit] |
| Cc1ccc(S(=O)(=O)N(C)CCCC(=O)N2CCN(C=O)CC2)cc1 | inconclusive [inhibitor, full curve, poor fit] |
| CCn1c(=O)cc(SCC(=O)N(C)Cc2ccccc2)c2ccccc21 | inconclusive [inhibitor, full curve, poor fit] |
| CCOc1cc(/C=C/C(=O)OCC(=O)NCc2ccco2)cc(Cl)c1OC | inconclusive [inhibitor, full curve, poor fit] |
| COc1cc(Cl)c(C)cc1NC(=O)CN1c2ccccc2S(=O)(=O)c2ccccc21 | inactive |
| O=C(CSc1cc(Cl)ccc1Cl)NCCCn1ccnc1 | inconclusive [inhibitor, full curve, poor fit] |
| O=C(CN1C(=O)COc2ccc(Cl)cc21)NCC1CCCO1 (centres undefined) | inconclusive [inhibitor, single point] |
| NC(=O)CCC(NC(=O)c1ccc(Cl)cc1)C(=O)NCCc1ccc2c(c1)OCCO2 (centres undefined) | inconclusive [inhibitor, partial curve, poor fit] |
| CC(C)C[C@H](NC(=O)Nc1ccccc1F)C(=O)O | inconclusive [inhibitor, single point] |
| COc1ccccc1-c1nn(CCC(=O)Nc2cccc(C(C)=O)c2)c2nc(C)cc(C)c12 | inactive |
| Cc1cc(C)c2[nH]c(=O)c(C(c3nnnn3CC3CCCO3)N3CCC(C)CC3)cc2c1 (centres undefined) | inconclusive [inhibitor, partial curve, poor fit] |
| O=C(c1ccc(Cl)c([N+](=O)[O-])c1)N(Cc1cccc(Cl)c1)C1CCS(=O)(=O)C1 (centres undefined) | inconclusive [inhibitor, partial curve, poor fit] |
| COc1cccc(NC(=O)c2cn(C3CCCCC3)c(=O)c3c2c2ccccc2n3C)c1 | inactive |
| COc1ccc(C(=O)NC2CCCCCC2)cc1S(=O)(=O)Nc1ccc(Br)cc1 | inactive |
| Cc1cccc(NC(=O)CC2(CC(=O)O)CCCC2)c1 | inconclusive [inhibitor, full curve, poor fit] |
| CC(C)CC(=O)NC(=S)N1CCN(c2ccc([N+](=O)[O-])cc2Cl)CC1 | inconclusive [inhibitor, full curve] |
| CCC(C)N1C(=O)CCC1C(=O)N1CCN(c2ccccc2F)CC1 (centres undefined) | inconclusive [inhibitor, full curve, poor fit] |
| CCOC(=O)C1CCN(C(=O)Cn2cc(C(=O)C3CC3)c3ccccc32)CC1 | inconclusive [inhibitor, full curve, poor fit] |
| Cc1oc2c(CN3CCOCC3)c(O)ccc2c(=O)c1-c1ccccc1 | inconclusive [inhibitor, single point] |
| O=C1CN=C(Nc2ccccc2)N1Cc1cccs1 | inconclusive [inhibitor, partial curve] |
| Cc1ccc(C(=O)NC2CCCC2)cc1S(=O)(=O)N1CCCCC1 | inconclusive [inhibitor, partial curve, poor fit] |
| CCN(CC)c1cc2c(cc1F)c(=O)c(S(=O)(=O)c1ccccc1)cn2Cc1ccccc1 | inactive |
| CCN(CC)C(=O)CSC1=C(C#N)C(c2cccs2)C=C(C)N1 (centres undefined) | inconclusive [inhibitor, full curve, poor fit] |
